Test results published in the supplement of paper PMC11417369.
± gives the standard deviation of the averaged measurements. The list shows a part of the results.

system: PfAP2-I AP2 domain 3 (GST-tagged); assay: gcPBM binding intensity (ln(normalized median fluorescence intensity)); higher = stronger DNA binding
Summary of the method: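 After 1 h on an Agilent 4 × 180k array of primer-extended double-stranded 36-bp intergenic genomic probes and negative controls, bound GST-tagged P. falciparum DNA-binding domains were detected with Alexa488 anti-GST antibody and scanned at 488 nm. The domains had been expressed in E. coli, and binding took place in 1× PBS with 1% milk, 0.2 mg/ml BSA, 0.5% salmon testes DNA and 0.03% Triton X-100. Binding intensity is the highest Masliner-normalised natural-log median intensity across replicate spots of either probe orientation.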

| Sequence | gcPBM binding intensity (ln) |
| --- | --- |
| AATATAATATAAGGATCACACACAAACACCCATATA [CACACA_site8084] | 8.12 ± 0.18 |
| TTTTATTCCTTCTTTGCACACGTTTAAAAATATATA [CACACA_site2899] | 9.795 ± 0.007 |
| TAAGTTATATGTATATGTACTTATATATATATATAT [XGTACX_site5402] | 9.16 ± 0.76 |
| ATTAAAAAAATTAAAAGTACACATATTTCAATGATA [XGTACX_site5606] | 7.86 ± 0.32 |
| AAAATTAAAAAGAACACACAAATATATCTATAATAA [CACACA_site7660] | 7.47 ± 0.65 |
| TAAAAAAAAAAAAAAACACACATATAAATATATATA [CACACA_site1243] | 7.86 ± 0.53 |
| TTTATATATATATATATATATAATAAATGATACACA [TGCATGCA_negctrl_site392] | 7.88 ± 0.42 |
| TATTTTTTTTCTTATACACACCATGCATCAAACTAA [CACACA_site5208] | 8.37 ± 0.59 |
| TTTGCACCGTTTAAGTGTACAGAATTATGACATATA [XGTACX_site6735] | 8.73 ± 0.099 |
| TCAAAAATATTCTGGAGTACCTTTTTAAAGGTATAG [XGTACX_site6893] | 7.43 ± 0.51 |
| ATTGCATATAATGGCACACATAAATCCATAATATAT [CACACA_site297] | 8.36 ± 0.29 |
| TGTGGTTACATGTGCACACACTTATTTCGTTCTTAT [CACACA_site4907] | 9.75 ± 0.14 |
| TAAATATATATATACACACACATACACAAAAAAAAA [CACACA_site3580] | 8.02 ± 0.42 |
| TATACATACCATAATGCATGTAAGAACAAATAACTG [TGCATGCA_site264] | 7.83 ± 0.6 |
| AAAAAAAAAAAAAAGGTGCATACTTTGAATTAATAT [GTGCAC_site9401] | 9.87 ± 0.17 |
| ATGACTCTCAAGTTTGCACACATTTATATTTTTTAA [CACACA_site2605] | 9.09 ± 0.22 |
| AATATAAATAATATATGTACATATATATATATATAT [XGTACX_site1021] | 9.01 ± 0.69 |
| AAAGTATTCTTTACACGTACATATATATAAATATAA [XGTACX_site7557] | 7.92 ± 0.54 |
| AATATAGATATAAAAAGTACATTATATATATATATA [XGTACX_site6899] | 9.4 ± 0.3 |
| AGAATTGTTGTTAAAGAATTCTTTTTTATCCTTCCC [CACACA_negctrl_site1820] | 7.61 ± 0.37 |
| TTTGTATATATTAATGTACACACATGCGTATGTTCG [CACACA_site9193] | 7.71 ± 0.52 |
| ATAATACTACCTACATGTACTTATATATAAATGAAT [XGTACX_site3417] | 8.11 ± 0.47 |

| Sequence | gcPBM binding intensity (ln) |
| --- | --- |
| GTTTTAACAAAATTAGTGCATTTATCAATTATATAA | 10.5 ± 0.14 |
| TTTTTTTTTTCAATGGCACACATTTTAGATTTATGC [CACACA_site1074] | 8.24 ± 0.67 |
| ACATCAAGCGGACACACACACACACCGACAGACACA [CACACA_site4361] | 8.16 ± 0.46 |
| AAAGAATCAAGAATAGTGCAAATATGTATAACCTTT | 10.39 ± 0.078 |
| ATAAAATAATGAAAAACACACATTTTTATTTGTATA [CACACA_site3369] | 7.34 ± 0.54 |
| ATATATATATATGAATCACACACAAAAAATATAGAG [CACACA_site9298] | 9.24 ± 0.21 |
| AAGATTATAAATATATGTACATAAATATATTATATA [XGTACX_site8056] | 7.6 ± 0.28 |
| ATTGTTTTTTTTTCTTTGTGGAATGAATGAATATAT [XGTACX_negctrl_site603] | 7.91 ± 0.59 |
| AATAACATGTTATATACACACATTATGAAGTCTTCA [CACACA_site746] | 7.46 ± 0.71 |
| TATATATATAAACACACACACATATATATATATATA [CACACA_site4584] | 9.28 ± 0.42 |
| AAAAAAAAAAAATGCACACATATATTTCCATATACA [CACACA_site1471] | 8.975 ± 0.021 |
| ATATATATATATATATGTACTAATTAATATTTCGAG [XGTACX_site580] | 9.45 ± 0.49 |
| ACAAAATTTACAAAATGTACAAAATTTACAAAGTAT [XGTACX_site6463] | 7.54 ± 0.56 |
| GTATATCATATTTCATGTACACAAAAAAATAAAAAT [XGTACX_site704] | 8.2 ± 0.33 |
| ATATATTTGATAAGAGTGCACAAATACATACATACA [GTGCAC_site9704] | 10.94 ± 0.071 |
| TATATATATTATATATGTACATATTATATATATATA [XGTACX_site7300] | 8.81 ± 0.22 |
| AAAAATACAATTTTCTTGCACTTTGTTGCATTGTAA | 9.79 ± 0.32 |
| AACATATACACGAACACACACACATATAAATAAATA [CACACA_site6380] | 8.07 ± 0.36 |
| CAAAATATAAAAACATGTACATAAATATTAACGAAT [XGTACX_site2380] | 8.05 ± 0.8 |
| ATATGTTTATTAAATGCATGTCAAGACTTAAGATAT [TGCATGCA_site329] | 7.89 ± 0.64 |
| TCATCCACATATTGTAGTACAAGATAATTGTTTATT [XGTACX_site1634] | 8.07 ± 0.24 |
| TTTAATACTTTTTTCTGTACACACTTGATTTACTAT [XGTACX_site5925] | 8.18 ± 0.48 |
